# Laboratory results reported in the supplement of paper PMC9446081.
# The campaign covered roughly 39,000 compounds. About 220 (0.56%) showed activity. This is one part of the list.
# Tested on: Escherichia coli K-12 BW25113
# Test: relative growth (OD600 normalised to plate interquartile mean) (fraction); higher = less growth inhibition, active = 0.2 or less
# Conditions: 50 µM; LB; incubation time: overnight (16-24 h)
# 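Note: static incubation at 37 °C against the wild-type strain, values averaged over two biological replicates.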
row,SMILES,relative growth
1,COc1ccccc1S(=O)(=O)N[C@H]1C=C[C@H](CC(=O)N2CCN(C)CC2)O[C@@H]1CO,inactive: 0.963
2,C[C@H](CO)N1C[C@H](C)[C@H](CN(C)S(=O)(=O)c2ccc(Cl)cc2)Oc2ccc(NC(=O)c3ccncc3)cc2CC1=O,inactive: 1.02
3,O=C(C[C@@H]1C[C@H]2c3cc(NC(=O)C4CCOCC4)ccc3O[C@H]2[C@H](CO)O1)NCCN1CCCCC1,inactive: 0.993
4,COc1ccc2c3c([nH]c2c1)[C@@H](CO)N(C[C@]13CCN(CC1)Cc1cc(ccc1F)F)C(=O)Nc1ccc(cc1)F,inactive: 1.01
5,C[C@@H]1CCCCO[C@H](CN(C)Cc2ccncc2)[C@@H](C)CN([C@H](C)CO)C(=O)c2cc(NC(=O)C3CCCCC3)ccc2O1,inactive: 0.971
6,C[C@H]1CN([C@@H](C)CO)C(=O)c2cccc(NC(=O)CCCCCC(=O)Nc3ccccc3N)c2O[C@@H]1CN(C)Cc1ccccc1,inactive: 1.01
7,C(=C\c1ccncc1)/c1ccncc1,inactive: 0.994
8,C=CCOC(=O)[C@H]1[C@@H]2C(=O)O[C@@H](c3ccccc3)[C@@H](c3ccccc3)N2[C@@H](c2ccc(OCCOC(=O)[C@H]3C[C@H]4C(=O)NCC(=O)N4[C@H]3c3cccc(OCCO)c3)cc2)[C@]12C(=O)Nc1ccc(I)cc12,inactive: 1.05
9,COc1ccc(NC(=O)Nc2ccc3c(c2)C(=O)N([C@@H](C)CO)C[C@@H](C)[C@H](CN(C)S(=O)(=O)c2ccc(OC)cc2)OCCCC[C@H](C)O3)cc1,inactive: 1.04
10,C[C@@H]1CCCCO[C@H](CN(C)CC2CC2)[C@@H](C)CN([C@H](C)CO)C(=O)c2cc(NC(=O)Nc3ccc(F)cc3)ccc2O1,inactive: 0.977
11,NCc1cccc(COc2ccccc2)c1,inactive: 0.985
12,Cc1ccc(S(=O)(=O)Nc2ccc3c(c2)C(=O)N([C@H](C)CO)C[C@@H](C)[C@@H](CN(C)S(C)(=O)=O)OCCCC[C@H](C)O3)cc1,inactive: 0.997
13,C[C@H](CO)N1C[C@H](C)[C@@H](CN(C)Cc2ccc3c(c2)OCO3)Oc2ccc(NC(=O)c3ccncc3)cc2CC1=O,inactive: 1.01
14,C[C@@H]1CN([C@@H](C)CO)C(=O)Cc2cc(NS(=O)(=O)c3cn(C)cn3)ccc2O[C@@H]1CN(C)Cc1ccc(C(=O)Nc2ccccc2N)cc1,inactive: 1
15,CN1C(=O)c2cc(NC(=O)c3ccc(F)cc3)ccc2OC[C@@H]2O[C@H](CC(=O)N3CCOCC3)CC[C@@H]21,inactive: 0.899
16,CC(C)NC(=O)Nc1cccc2c1O[C@H](CN(C)S(=O)(=O)c1cccs1)[C@@H](C)CN([C@H](C)CO)C2=O,inactive: 1.03
17,C[C@@H]1CN([C@H](C)CO)C(=O)c2cc(NC(=O)Nc3ccc(C(F)(F)F)cc3)ccc2O[C@@H]1CN(C)C(=O)NC1CCCCC1,inactive: 0.987
18,COc1ccc(CN(CCN(C)C)c2ncccn2)cc1.Cl,inactive: 1.08
19,CC(C)C#Cc1ccc2c(c1)O[C@@H](CN(C)C(=O)c1cnccn1)[C@H](C)CN([C@H](C)CO)S2(=O)=O,inactive: 0.977
20,CC=Cc1ccc2n(c1=O)C[C@H]1[C@H](CO)[C@@H](C(=O)NCCc3cn(C)cn3)N(C(=O)CC)[C@@H]21,inactive: 1.03
21,Cc1noc(C)c1S(=O)(=O)Nc1ccc2c(c1)C(=O)N([C@@H](C)CO)C[C@H](C)[C@H](CN(C)Cc1ccccc1)OCCCC[C@H](C)O2,inactive: 0.994

row,SMILES,relative growth
1,COc1ccc(CN(C)C[C@H]2OCCCC[C@@H](C)Oc3ccc(NC(=O)NC4CCCCC4)cc3C(=O)N([C@H](C)CO)C[C@@H]2C)cc1,inactive: 0.963
2,COc1ccc(NC(=O)Nc2cccc3c2O[C@H](CN(C)CC2CCCCC2)[C@@H](C)CN([C@H](C)CO)C3=O)cc1,inactive: 0.96
3,C[C@H](CO)N1C[C@H](C)[C@H](CN(C)S(=O)(=O)c2ccccc2F)Oc2ncc(C#Cc3ccncc3)cc2C1=O,inactive: 0.99
4,C[C@@H]1CN([C@@H](C)CO)C(=O)Cc2cc(NC(=O)Cn3cnnn3)ccc2O[C@H]1CN(C)C(=O)Nc1ccc(C(F)(F)F)cc1,inactive: 0.993
5,CCC1OC(=O)C(C)C(OC2CC(C)(OC)C(O)C(C)O2)C(C)C(OC2OC(C)CC(N(C)C)C2O)C(C)(O)CC(C)C(=O)C(C)C(O)C1(C)O (stereo unspecified),inactive: 0.408
6,C[C@H]1CN([C@@H](C)CO)C(=O)c2cc(NS(=O)(=O)c3cn(C)cn3)ccc2O[C@H]1CN(C)S(=O)(=O)c1ccccc1,inactive: 0.994
7,CC1(C)O[C@@H]2[C@@H](CO[C@@]3(COS(N)(=O)=O)OC(C)(C)O[C@@H]23)O1,inactive: 0.998
8,O=C(C[C@H]1CC[C@H]2[C@@H](COC[C@H](O)CN2C(=O)C2CC2)O1)NCc1ccncc1,inactive: 0.991
9,COc1cc2c(cc1OC)CN(C(=O)[C@H]1[C@@H]3C(=O)O[C@@H](c4ccccc4)[C@@H](c4ccccc4)N3[C@@H](c3ccc(O)cc3)[C@]13C(=O)Nc1ccccc13)CC2,inactive: 0.996
10,O=C(C[C@@H]1C[C@H]2c3cc(NC(=O)C4CCOCC4)ccc3O[C@H]2[C@@H](CO)O1)NCc1cc(F)ccc1F,inactive: 1.01
11,COc1cccc(S(=O)(=O)Nc2ccc3c(c2)[C@H]2C[C@H](CC(=O)N4CCCCC4)O[C@H](CO)[C@H]2O3)c1,inactive: 0.996
12,C[C@@H]1CCCCO[C@H](CN(C)Cc2ccc(C(F)(F)F)cc2)[C@@H](C)CN([C@H](C)CO)C(=O)c2cc(NC(=O)Nc3ccc(F)cc3)ccc2O1,inactive: 0.988
13,Cn1c(=O)c2[nH]c(NCCN3CCOCC3)nc2n(C)c1=O,inactive: 1.03
14,CN(C)C(=O)c1ccc(-c2cccc(-c3nc(C(=O)NC4CCCC4)cc4c3[C@@H](CCO)N([S@](=O)C(C)(C)C)C4)c2)cc1,inactive: 0.996
15,C[C@@H]1CN([C@H](C)CO)C(=O)c2cccc(NC(=O)c3ccc(-c4nccs4)cc3)c2O[C@@H]1CN(C)Cc1ccc(C(=O)Nc2ccccc2N)cc1,inactive: 1.02
16,C=CC(C1=CC(=O)C(OC)=CC1=O)c1ccc(O)cc1 (stereo unspecified),inactive: 1.06
17,Cn1c(=O)c2[nH]c(-[n+]3ccc(C(=O)O)cc3)nc2n(C)c1=O,inactive: 1.03
18,O[C@@H]1N[C@H](O)c2ccccc21,inactive: 1.02
19,C[C@@H]1CN([C@H](C)CO)C(=O)Cc2cc(NC(=O)CCN3CCOCC3)ccc2O[C@@H]1CN(C)Cc1ccc(C(=O)O)cc1,inactive: 0.979
20,C/C=C/c1cnc2c(c1)C(=O)N([C@H](C)CO)C[C@H](C)[C@@H](CN(C)S(=O)(=O)c1ccc(OC)cc1)O2,inactive: 1.02
21,Cc1noc(C)c1NC(=O)Nc1ccc2c(c1)CC(=O)N([C@H](C)CO)C[C@@H](C)[C@H](CN(C)C(=O)Nc1ccc(C(F)(F)F)cc1)O2,inactive: 1.01

row,SMILES,relative growth
1,C[C@H]1CN([C@@H](C)CO)C(=O)Cc2cc(NC(=O)Cc3ccccc3)ccc2O[C@H]1CN(C)S(=O)(=O)c1cn(C)cn1,inactive: 0.967
2,C[C@H](NC(=O)N(C)C[C@@H]1OCc2ccccc2-c2c(n(C)c3ccccc23)C(=O)N([C@@H](C)CO)C[C@@H]1C)c1ccccc1,inactive: 1.02
3,COCC#Cc1ccc([C@@H]2[C@@H](CO)N3C(=O)CN(C(=O)C4CCOCC4)C[C@@H]23)cc1,inactive: 1
4,CCOC(=O)Cc1nnc(CC(=O)OCC)[nH]1,inactive: 0.988
5,C[C@@H]1CN([C@@H](C)CO)C(=O)c2c(c3ccccc3n2C)-c2ccccc2CO[C@H]1CN(C)Cc1ccc(C(F)(F)F)cc1,inactive: 1.04
6,CO/N=C(\C(=O)N[C@@H]1C(=O)N2C(C(=O)O)=C(C[n+]3ccn4ncccc43)CS[C@H]12)c1nsc(N)n1,active: 0.0425
7,C=CCC[C@@H](Cc1ccc(F)cc1)C(=O)O[C@@H](CNC(=O)[C@@H](CC=C)CC(=O)N[C@H](CO)Cc1ccccc1)c1ccccc1,inactive: 1.06
8,C[C@@H]1CN([C@H](C)CO)C(=O)Cc2cc(NC(=O)Nc3ccc4c(c3)OCO4)ccc2O[C@@H]1CN(C)S(=O)(=O)c1cn(C)cn1,inactive: 0.986
9,Cc1noc(C)c1NC(=O)N(C)C[C@H]1Oc2ccc(NC(=O)Nc3cccc4ccccc34)cc2CC(=O)N([C@H](C)CO)C[C@H]1C,inactive: 1
10,COCCN1C(=O)CO[C@H]2CN(S(=O)(=O)c3ccccc3)C[C@@H]21,inactive: 1.01
11,Nc1cccn2ncnc12,inactive: 1.01
12,Cc1ccc(S[C@]2(C(=O)NCC(F)(F)F)CC(=O)N(Cc3ccccc3C(F)(F)F)[C@@H]2c2ccc(CO)cc2I)cc1,inactive: 0.978
13,CNC[C@H]1OCCCC[C@H](C)Oc2ccc(NS(=O)(=O)c3c(C)noc3C)cc2C(=O)N([C@@H](C)CO)C[C@H]1C,inactive: 0.973
14,CN(C)CCNC(=O)[C@H]1CN(Cc2cnn(C)c2)Cc2ccnn2C1,inactive: 1
15,O=C1CN(c2ccccc2)C=NN1,inactive: 0.987
16,O=C(C[C@@H]1C[C@H]2c3cc(NS(=O)(=O)c4ccc(F)cc4)ccc3O[C@H]2[C@@H](CO)O1)NC1CCCC1,inactive: 0.977
17,O=C(C[C@H]1CC[C@H]2[C@@H](COC[C@@H](O)CN2C(=O)Nc2ccc(Cl)cc2)O1)NCCc1ccncc1,inactive: 0.993
18,C[C@@H]1CN([C@@H](C)CO)C(=O)c2cccc(NC(=O)Nc3ccc4c(c3)OCO4)c2O[C@H]1CN(C)S(=O)(=O)c1cn(C)cn1,inactive: 1.01
19,C[C@H](CO)N1C[C@H](C)[C@H](CN(C)C(=O)c2ccccc2)OCCCC[C@H](C)Oc2ccc(NS(=O)(=O)c3cccs3)cc2C1=O,inactive: 1.01
